Measured values reported in PubChem BioAssay AID1745853 (National Center for Advancing Translational Sciences (NCATS), 2022).
The other results are listed elsewhere or left out. The main result of the screen is listed elsewhere. These columns were measured beside it and carry no call.

How the values were obtained:
Test in all cases: Primary Screen for Target Class Profiling of Small Molecule Inhibitors of Methyltransferases
[1] = molecular target: Glycine N-methyltransferase (Homo sapiens) (UniProt Q14749); conditions: purified enzyme, MTase-Glo SAH luminescence; measured here: GNMT inhibition; at 40 µM; stronger effect = lower value
In short: (§1)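 Each enzyme was assayed with SAM and its substrate. SAH formation detected by MTase-Glo luminescence; single-point 40 uM screen[…].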

[2] = molecular target: Guanidinoacetate N-methyltransferase (Homo sapiens) (UniProt Q14353); conditions: purified enzyme, MTase-Glo SAH luminescence; measured here: GAMT inhibition; at 40 µM; stronger effect = lower value
In short: as §1

[3] = molecular target: Histamine N-methyltransferase (Homo sapiens) (UniProt P50135); conditions: purified enzyme, MTase-Glo SAH luminescence; measured here: HNMT inhibition; at 40 µM; stronger effect = lower value
In short: as §1

[4] = molecular target: Nicotinamide N-methyltransferase (Homo sapiens) (UniProt P40261); conditions: purified enzyme, MTase-Glo SAH luminescence; measured here: NNMT inhibition; at 40 µM; stronger effect = lower value
In short: as §1

[5] = molecular target: Phenylethanolamine N-methyltransferase (Homo sapiens) (UniProt P11086); conditions: purified enzyme, MTase-Glo SAH luminescence; measured here: PNMT inhibition; at 40 µM; stronger effect = lower value
In short: as §1
On the % scale 0 is the no-effect control and ±100 the full control effect.

Row | Structure (SMILES) | activity change, negative = inhibition [1] [%] | activity change, negative = inhibition [2] [%] | activity change, negative = inhibition [3] [%] | activity change, negative = inhibition [4] [%] | activity change, negative = inhibition [5] [%]
1 | COc1ccc(CCNC(=O)c2cc3n(n2)CC(C)(C(=O)NCc2ccccc2)N(C)C3=O)cc1OC (stereo not given) | -7.82 | 3.04 | -1.18 | 0.874 | -0.362
2 | Cc1ccccc1Cn1nc2n(CCC(C)C)c(=O)c3ccc(C(=O)NC(C)C)cc3n2c1=O | 3.73 | 2.14 | 2.72 | -1.86 | 0.185
3 | COC(=O)C1=CO[C@@H](O[C@@H]2O[C@H](COC(=O)/C=C/c3cc(OC)c(O)c(OC)c3)[C@@H](O)[C@H](O)[C@H]2O)[C@@H]2C(CO)=CC[C@H]12 | 4.22 | 0.43 | 8.28 | -14.1 | -6.81
4 | Cc1ccc(CN2CCC(C(=O)N3CCCCCCNC(=O)CC3)CC2)s1 | -6 | -7.13 | -7.99 | -8.45 | -8.43
5 | CCCn1c(=O)c2ccc(C(=O)NC(C)CC)cc2n2c(SCC(N)=O)nnc12 (stereo not given) | 4.05 | 3.92 | 7.25 | -3.46 | 1.19
6 | O=C(CCc1nnc2n(Cc3ccc(Cl)cc3)c(=O)c3ccccc3n12)Nc1ccc(F)c(F)c1 | -4.26 | 0.964 | -2.05 | -6.32 | -6.07
7 | Fc1cccc(-c2nnn3c2nc(NCc2ccc4c(c2)OCO4)c2ccccc23)c1 | 2.49 | 3.13 | -2.7 | 1.19 | -9.19
8 | CCOc1ccccc1CN1C(=O)c2cc3occc3n2CC1(C)C(=O)NC1CCCC(C)C1C (stereo not given) | -4.72 | 2.88 | 0.699 | -2.46 | -3.99
9 | CCN(CC)C(=O)Cn1c(=O)oc2cc(S(=O)(=O)N3CC(C)CC(C)C3)ccc21 (stereo not given) | -5.3 | 2.55 | -1.44 | 5.38 | -4.79
10 | CCn1c(=O)n([C@H]2CCCN(c3nccc(-c4cc5ccccc5o4)n3)C2)c2ccccc21 | 4.07 | -15.1 | 3.73 | -29.5 | -4.94
11 | O=C(CCc1nnc2n(Cc3ccc(F)cc3)c(=O)c3ccccc3n12)NCCc1ccccc1 | -12.9 | 4.19 | -7.53 | -20.4 | -6.93
12 | C=C1[C@@H]2CC[C@@H]3[C@@](CCC4C(C(=O)O)(C(=O)O)C[C@@H](O[C@@H]5O[C@H](CO)[C@@H](O)[C@H](O)[C@H]5OC(=O)CC(C)C)C[C@]43C)(C2)[C@H]1O (stereo not given in full) | 7.58 | 8.39 | 7.91 | -3.4 | 7.4
13 | CC(C)Cn1c(=O)c2ccc(C(=O)NC(C)C)cc2n2c(=O)n(C)nc12 | 5.38 | 0 | 7.76 | 4.01 | 4.51
14 | Cc1nnc([C@H]2CCN(Cc3cnc4ccccc4c3)C2)o1 | -17.3 | -1.33 | -6.28 | -4 | -10.4
15 | Cc1ccc(NC(=O)N2CCC(CCNC(=O)CC3CCCC3)CC2)cc1F | -6.64 | -8.53 | -4.64 | -18.4 | -12.4
16 | COCCC1(NC(=O)c2ccoc2)CCN(CC2CC2)CC1 | -2.32 | 2.82 | -1.78 | -0.359 | -1.2
17 | CC(=O)Nc1c2n(c3ccc(F)cc13)CC(C)(C(=O)NC1CCCCCC1)N(C1CCCCCC1)C2=O (stereo not given) | -11.2 | -1.71 | -4.41 | -5.83 | -5.82
18 | C=C/C=C/[C@@H]1OC[C@H](/C=C/C=C/C)[C@H]1O | 4.04 | 10.7 | 5.26 | 2.45 | 8.21

Row | Structure (SMILES) | activity change, negative = inhibition [1] [%] | activity change, negative = inhibition [2] [%] | activity change, negative = inhibition [3] [%] | activity change, negative = inhibition [4] [%] | activity change, negative = inhibition [5] [%]
19 | CCCn1c(=O)c2cc(F)ccc2n2c(SCC(=O)Nc3cc(F)ccc3F)nnc12 | -5.24 | 0 | 7.12 | -4.33 | 2.77
20 | CC1CCCCN1CCNC(=O)CCCc1nnc2n3nc(-c4ccccc4)nc3c3ccccc3n12 (stereo not given) | -9.43 | 2.2 | -29.3 | 2.13 | -2.1
21 | CC(C)CC(=O)Nc1n[nH]c2c1CN(C(=O)C1CCN(C)CC1)C2(C)C | -7.27 | -7.89 | -37.5 | -14.9 | -8.32
22 | Cc1cccc(-c2nnc3n(Cc4ccc(F)cc4)c(=O)c4ccccc4n23)c1 | -3.96 | 1.02 | 5.27 | -4.69 | 1.08
23 | Cc1c[nH]c2ncnc(N3CCC(CN)(C(=O)Nc4cccc(OC(=O)N(C)C)c4)CC3)c12 | 1.03 | 9.55 | -7.83 | -51.1 | -14.6
24 | C=C1[C@H](OC(C)=O)[C@H]2[C@@H](OC(C)=O)[C@](C)(OC(C)=O)C[C@]2(OC(C)=O)C(=O)[C@H](C)/C=C/C(C)(C)C(=O)[C@H](OC(=O)C(C)CC)[C@H]1OC(C)=O (stereo not given in full) | 7.21 | 6.18 | 9.78 | -6.93 | -2.25
25 | O=C(CCCc1nnc2n3nc(-c4ccccc4)nc3c3ccccc3n12)NCc1ccc2c(c1)OCO2 | -4.92 | 0 | 0.003 | 2.85 | -3.85
26 | CC(C)(C)Sc1c(CC(C)(C)C(=O)O)n(Cc2ccc(Cl)cc2)c2ccc(OCc3ccc4ccccc4n3)cc12 | -11.5 | -2.79 | 5.94 | -53.8 | -2.44
27 | CCOCCCNC(=O)CCc1nnc2n(Cc3ccccc3)c(=O)c3ccccc3n12 | -7.78 | 4.57 | 0.984 | 10.7 | -0.903
28 | CN1CCCC1CCOC(C)(c1ccccc1)c1ccc(Cl)cc1 (stereo not given) | -3.64 | 12.2 | -17.8 | -7.59 | 1.1
29 | Cc1cc2c(cc3n2CC(C)(C(=O)NC2CCCCCCC2)N(C2CCCC2)C3=O)o1 (stereo not given) | -9.04 | 0.025 | -2.41 | -6.89 | -4.37
30 | CC(C)NC(=O)c1ccc2c(=O)n(C3CC3)c3nn(CC(=O)Nc4cc(F)ccc4F)c(=O)n3c2c1 | 6.3 | 0 | 11.2 | 1.92 | 6.47
31 | Cc1ccc(C(=O)Cn2nc3n(C(C)C)c(=O)c4ccc(C(=O)NCC(C)C)cc4n3c2=O)c(C)c1 | 3.62 | 2.08 | 5.29 | 0.429 | 3.48
32 | CS(=O)(=O)N[C@H]1C[C@H]2C(=O)NC[C@@H](CCC(=O)N3CCCCC3)N2C1 | -5.97 | -7.38 | -2.29 | -9.13 | -14.2
33 | CCC1c2ccc(C)n2CCN1C(=O)Nc1cc(Cl)c(OC)cc1OC (stereo not given) | 1.35 | -2.19 | -5.22 | -4.42 | -1.24
34 | CCN1C(=O)c2cc(C(=O)NCc3ccc(C)cc3)nn2CC1(C)C(=O)NC1CCCC1 (stereo not given) | 4.7 | 0 | -0.194 | 9.14 | 3.49
35 | CSc1ccc(CNC(=O)c2cc3n(n2)CC(C)(C(=O)NCCC(C)C)N(C)C3=O)cc1 (stereo not given) | 3.94 | 0 | 2.6 | 1.98 | 2.51
36 | Cc1cccc(-c2noc(CCC(=O)N[C@H]3CC[C@H]3NC3CCCC3)n2)c1 | -4.67 | -6.46 | -11.2 | -14.7 | -4.57
